The record followed here is article PMC10600341.

Experiment [1] has as its target T1, 3xFLAG-HA tagged wild-type STRA8 (stimulated by retinoic acid 8) (mouse) (UniProt P70278).
T1 sequence: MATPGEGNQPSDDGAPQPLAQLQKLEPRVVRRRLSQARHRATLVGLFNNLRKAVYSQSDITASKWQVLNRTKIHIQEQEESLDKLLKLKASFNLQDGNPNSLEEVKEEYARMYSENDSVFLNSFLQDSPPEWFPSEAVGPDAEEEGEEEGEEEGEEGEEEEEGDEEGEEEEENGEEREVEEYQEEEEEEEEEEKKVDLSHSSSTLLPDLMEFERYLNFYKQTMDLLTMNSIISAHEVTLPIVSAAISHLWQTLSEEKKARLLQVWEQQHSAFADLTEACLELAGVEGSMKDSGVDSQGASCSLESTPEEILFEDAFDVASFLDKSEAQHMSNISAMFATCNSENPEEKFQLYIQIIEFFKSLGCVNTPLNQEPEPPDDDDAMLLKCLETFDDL
In words: co-IP; tandem affinity purification with anti-FLAG M2 beads (elution with 3xFLAG peptide) and then anti-HA beads from chromatin-bound testis extracts of 10 to 12-day old knock-in mice; washes with high salt extraction buffer (400 mM KCl); western blot; non-tagged wild-type testis as negative ….

Experiment [2] has as its target T2, Retinoblastoma protein RB1 (mouse (endogenous in testis)), P13405.
T2 chain: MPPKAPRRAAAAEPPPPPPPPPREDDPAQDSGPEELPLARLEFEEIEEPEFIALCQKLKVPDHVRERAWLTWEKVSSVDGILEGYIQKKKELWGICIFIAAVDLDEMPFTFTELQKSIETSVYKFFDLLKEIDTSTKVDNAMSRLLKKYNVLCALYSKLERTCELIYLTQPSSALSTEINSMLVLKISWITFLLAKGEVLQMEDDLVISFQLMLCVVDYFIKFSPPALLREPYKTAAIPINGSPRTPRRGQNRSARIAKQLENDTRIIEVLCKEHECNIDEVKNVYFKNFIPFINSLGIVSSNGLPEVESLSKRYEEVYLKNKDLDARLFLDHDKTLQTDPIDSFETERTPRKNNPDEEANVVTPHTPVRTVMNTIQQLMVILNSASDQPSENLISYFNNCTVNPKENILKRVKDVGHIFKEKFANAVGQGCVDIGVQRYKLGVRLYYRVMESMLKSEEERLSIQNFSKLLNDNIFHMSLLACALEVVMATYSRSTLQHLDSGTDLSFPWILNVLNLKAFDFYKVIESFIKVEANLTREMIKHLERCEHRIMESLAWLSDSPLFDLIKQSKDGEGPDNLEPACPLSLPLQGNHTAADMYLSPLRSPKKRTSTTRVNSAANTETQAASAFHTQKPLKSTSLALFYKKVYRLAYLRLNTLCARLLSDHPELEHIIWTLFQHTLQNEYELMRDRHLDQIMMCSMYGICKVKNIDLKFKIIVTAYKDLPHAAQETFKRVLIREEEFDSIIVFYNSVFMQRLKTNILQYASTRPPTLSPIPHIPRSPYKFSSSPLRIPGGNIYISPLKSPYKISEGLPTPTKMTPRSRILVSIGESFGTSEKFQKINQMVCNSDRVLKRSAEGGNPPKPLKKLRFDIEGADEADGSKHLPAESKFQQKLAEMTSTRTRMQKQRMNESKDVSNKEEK
In words: co-IP; anti-FLAG IP product from Stra8 wt-3FH KI testes (10 to 11-day-old) subjected to a second IP with anti-RB1 antibody crosslinked to protein A-Dynabeads; control rabbit IgG; immunoblot. The note with it: remark: other sources report otherwise.

Experiment [3] concerns the target T3, Retinoblastoma protein RB1 (mouse (endogenous in testis)) (UniProt P13405).
T3 sequence: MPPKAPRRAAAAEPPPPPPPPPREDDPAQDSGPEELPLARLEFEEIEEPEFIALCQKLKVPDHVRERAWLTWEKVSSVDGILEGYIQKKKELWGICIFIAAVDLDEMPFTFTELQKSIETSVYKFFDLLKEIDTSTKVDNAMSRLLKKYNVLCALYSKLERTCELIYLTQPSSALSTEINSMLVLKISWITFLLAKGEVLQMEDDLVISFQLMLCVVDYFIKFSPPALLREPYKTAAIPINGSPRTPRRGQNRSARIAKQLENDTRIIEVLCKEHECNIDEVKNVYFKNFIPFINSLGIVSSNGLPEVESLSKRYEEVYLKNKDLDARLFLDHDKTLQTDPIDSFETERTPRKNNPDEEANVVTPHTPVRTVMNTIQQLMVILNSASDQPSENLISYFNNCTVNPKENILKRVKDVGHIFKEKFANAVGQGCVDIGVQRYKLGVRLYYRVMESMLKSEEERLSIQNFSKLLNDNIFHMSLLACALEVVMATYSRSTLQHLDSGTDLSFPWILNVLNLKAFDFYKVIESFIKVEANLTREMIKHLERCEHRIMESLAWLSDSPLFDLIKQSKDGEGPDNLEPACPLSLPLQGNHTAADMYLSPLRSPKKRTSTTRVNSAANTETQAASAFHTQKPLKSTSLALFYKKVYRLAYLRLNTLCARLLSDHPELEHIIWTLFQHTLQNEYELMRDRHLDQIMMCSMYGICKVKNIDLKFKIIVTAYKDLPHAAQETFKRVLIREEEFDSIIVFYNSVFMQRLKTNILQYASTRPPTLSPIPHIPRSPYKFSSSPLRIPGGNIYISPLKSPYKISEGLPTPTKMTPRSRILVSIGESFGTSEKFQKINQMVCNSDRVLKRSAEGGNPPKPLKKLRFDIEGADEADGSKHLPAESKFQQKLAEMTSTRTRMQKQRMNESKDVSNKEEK
The experiment is described as above.

These are yes or no findings as the source states them, for the method shown. Binding seen in cells or lysates may run through a third protein. Some results given as binding are weak or reduced against the parent protein; the word gives no strength. For some assays here: Where a sequence is shown, tags or fusion partners need not be part of it.

B1: p107/RB-Like1 (protein, UniProt Q64701 1-1063)
chain: MFEDEPHAEGAAAVAAAREALQALCQELNLDEGSAAEALDDFTAIRGNYSLEGEVIHWLACSLYVACRKSIIPTVGKGVMEGNCVSLTRILRSAKLSLIQFFSKMKKWMDMSNLPQEFRERIERLERNFEVSTVIFKKFEPIFLDIFQNPYEEPPKLPRSRKQRRIPCSVKDLFNFCWTLFVYTKGNFRMIGDDLVNSYHLLLCCLDLIFANAIMCPNRRDLLNPSFKGLPSDFHAPDFKAAEEPPCIIAVLCDLHDGLLVEAKGIKEHYFKPYISKLFDKKILKGECLLDLSSFTDNSKAVNKEYEEYVLTVGDFDERIFLGADAEEEIGTPRKFTADTPFGKLTSQASVECNLQQHFEKKRSFAPSTPLTGRRYLQEKEAVTTPVASATQSVSRLQSIVAGLKSAPSEQLLNIFESCMRNPMGNIIKIVKGIGETFCQHYTQSTDKQPGSHIDFAVNRLKLAEILYYKILETIMVQETRRLHGMDMSVLLEQDIFHKSLMACCLEIVLFAYSSPRTFPWIIEVLDLQPFYFYKVIEVVIRSEEGLSRDMVKHLNSIEEQILESLAWTNNSALWEALHASANRVPSCEEVIFPNNFEIGNGGNVQGHLPMMPMSPIIHPRVKEVRTDSGSLRQDMQPLSPISVHERYSSPAAGSAKRRLFGDDPPKDTLMDKIMAEGTKLKIAPSSVTAESLSISPGQALLTMATTTVTGTTGRKVTVPLHGIANDAGEITLVPISMNPTQESTAESPVSLTAQSLIGTSPKQTHLTKAQDAHLTGVSKPKRTGSLALFYRKVYHLASVRLRDLCLKLDVSNELRRKIWTCFEFTLVHCPDLMKDRHLDQLLLCAFYIMAKVTKEERTFQEIMKSYRNQPQANSHVYRSVLLKSIPGGVVVYNGDCEMTDGDIEDATKTPNCSSEPVKEERGDLIKFYNTVYVGRVKSFALKYDLSNQDHIMDAPPLSPFPHIKQQPGSPRRISQQHSLYVSPHKNGAGLTPRSALLYKFNGSPSKSLKDINNMIRQGEQKTKKRVIAISGDADSPAKRLCQENDDVLLKRLQDVVSERANH
Take B1: in experiment [1], the binding result is listed as “binds”.

B2: Retinoblastoma protein RB1 (protein, UniProt P13405 1-921)
chain: MPPKAPRRAAAAEPPPPPPPPPREDDPAQDSGPEELPLARLEFEEIEEPEFIALCQKLKVPDHVRERAWLTWEKVSSVDGILEGYIQKKKELWGICIFIAAVDLDEMPFTFTELQKSIETSVYKFFDLLKEIDTSTKVDNAMSRLLKKYNVLCALYSKLERTCELIYLTQPSSALSTEINSMLVLKISWITFLLAKGEVLQMEDDLVISFQLMLCVVDYFIKFSPPALLREPYKTAAIPINGSPRTPRRGQNRSARIAKQLENDTRIIEVLCKEHECNIDEVKNVYFKNFIPFINSLGIVSSNGLPEVESLSKRYEEVYLKNKDLDARLFLDHDKTLQTDPIDSFETERTPRKNNPDEEANVVTPHTPVRTVMNTIQQLMVILNSASDQPSENLISYFNNCTVNPKENILKRVKDVGHIFKEKFANAVGQGCVDIGVQRYKLGVRLYYRVMESMLKSEEERLSIQNFSKLLNDNIFHMSLLACALEVVMATYSRSTLQHLDSGTDLSFPWILNVLNLKAFDFYKVIESFIKVEANLTREMIKHLERCEHRIMESLAWLSDSPLFDLIKQSKDGEGPDNLEPACPLSLPLQGNHTAADMYLSPLRSPKKRTSTTRVNSAANTETQAASAFHTQKPLKSTSLALFYKKVYRLAYLRLNTLCARLLSDHPELEHIIWTLFQHTLQNEYELMRDRHLDQIMMCSMYGICKVKNIDLKFKIIVTAYKDLPHAAQETFKRVLIREEEFDSIIVFYNSVFMQRLKTNILQYASTRPPTLSPIPHIPRSPYKFSSSPLRIPGGNIYISPLKSPYKISEGLPTPTKMTPRSRILVSIGESFGTSEKFQKINQMVCNSDRVLKRSAEGGNPPKPLKKLRFDIEGADEADGSKHLPAESKFQQKLAEMTSTRTRMQKQRMNESKDVSNKEEK
Consider B2, for which, in experiment [1], the binding entry was “binds”.

B3: meiosis initiator (MEIOSIN) (protein, UniProt A0A5K7RLP0 1-589)
chain: MLGSDKFSCFSDQHRARSPSPTDRKDKKNHTNKLRELALLIPVTMKTRDKKYTKKEILLRVLHYIQYLQRNIDMTKALLKLHSSNGKGRFVGPGLNPSAGQTQQQHSTPSSSQKPSLWSTSSKPRKKKFTRVSEHPSWPYNPRRSLALDQAENPNTIHPGLKEENEECATYPGVLSPSTYPTTEPSVSEGDGQGAQLVFLDMAQNIFAYDILSDHAVEVQGGEPNADIKVQRSFFLTRAQPCVSSCRQKLFLCTSSEADKEAPDSDPWLPVWTSEDSPNGSPLALGSSQINTWHVADYLNEILGVSSSLFSSPSKILPDHVLEDGTYFLTEGLLESSPATCEVESPQEKEVSSEGPTGPPNFQSSVSLDHCYLSLSENVKVLSNCGSSSESTDTESLWGQEEVRGVATYPRRTGVFSLAQPSVLQQANPEGLQTSSDEDRDYTWTPTGQSSGLPVASKKIKKVQASQGPVKPKDSRKACPGQVKKKCVNGFIMFCRMNRKQYIRACPGTASTAATKDLAQLWRGMTLEEKKPYCTKARRFSRQNNRIVKQENSSSEDDDGETPKPFYQLLAEKAQVSLGLTSLPTPNCQ
As for B3, the binding result in experiment [1] is reported as “binds”.

B4: meiosis initiator (MEIOSIN), A0A5K7RLP0 1-589 (protein)
chain: MLGSDKFSCFSDQHRARSPSPTDRKDKKNHTNKLRELALLIPVTMKTRDKKYTKKEILLRVLHYIQYLQRNIDMTKALLKLHSSNGKGRFVGPGLNPSAGQTQQQHSTPSSSQKPSLWSTSSKPRKKKFTRVSEHPSWPYNPRRSLALDQAENPNTIHPGLKEENEECATYPGVLSPSTYPTTEPSVSEGDGQGAQLVFLDMAQNIFAYDILSDHAVEVQGGEPNADIKVQRSFFLTRAQPCVSSCRQKLFLCTSSEADKEAPDSDPWLPVWTSEDSPNGSPLALGSSQINTWHVADYLNEILGVSSSLFSSPSKILPDHVLEDGTYFLTEGLLESSPATCEVESPQEKEVSSEGPTGPPNFQSSVSLDHCYLSLSENVKVLSNCGSSSESTDTESLWGQEEVRGVATYPRRTGVFSLAQPSVLQQANPEGLQTSSDEDRDYTWTPTGQSSGLPVASKKIKKVQASQGPVKPKDSRKACPGQVKKKCVNGFIMFCRMNRKQYIRACPGTASTAATKDLAQLWRGMTLEEKKPYCTKARRFSRQNNRIVKQENSSSEDDDGETPKPFYQLLAEKAQVSLGLTSLPTPNCQ
For B4, the binding entry in experiment [2] is on record as “no binding”.

B5: 3xFLAG-HA tagged wild-type STRA8 (stimulated by retinoic acid 8) (protein, UniProt P70278 1-393)
chain: MATPGEGNQPSDDGAPQPLAQLQKLEPRVVRRRLSQARHRATLVGLFNNLRKAVYSQSDITASKWQVLNRTKIHIQEQEESLDKLLKLKASFNLQDGNPNSLEEVKEEYARMYSENDSVFLNSFLQDSPPEWFPSEAVGPDAEEEGEEEGEEEGEEGEEEEEGDEEGEEEEENGEEREVEEYQEEEEEEEEEEKKVDLSHSSSTLLPDLMEFERYLNFYKQTMDLLTMNSIISAHEVTLPIVSAAISHLWQTLSEEKKARLLQVWEQQHSAFADLTEACLELAGVEGSMKDSGVDSQGASCSLESTPEEILFEDAFDVASFLDKSEAQHMSNISAMFATCNSENPEEKFQLYIQIIEFFKSLGCVNTPLNQEPEPPDDDDAMLLKCLETFDDL
Take B5: the binding entry in experiment [3] is “binds”.
